These are yes or no findings as the source states them, for the method shown. Some binding calls cover weakened binding; strength is not graded here. Tags and fused reporters may be left off the sequences shown.
Assays:
Assay in all cases: two-hybrid; KAR4-GBD alleles with IME4-GAD in PJ69-4 diploids; 24 hours in meiosis-inducing conditions, then 10-fold serial dilutions on SC-HIS and SC-ADE (HIS3 and ADE2 reporters); graded ++++ to -
[1] = target: T1, Kar4p G287D fused to the Gal4p DNA-binding domain (S. cerevisiae) (UniProt P25583)
T1 sequence: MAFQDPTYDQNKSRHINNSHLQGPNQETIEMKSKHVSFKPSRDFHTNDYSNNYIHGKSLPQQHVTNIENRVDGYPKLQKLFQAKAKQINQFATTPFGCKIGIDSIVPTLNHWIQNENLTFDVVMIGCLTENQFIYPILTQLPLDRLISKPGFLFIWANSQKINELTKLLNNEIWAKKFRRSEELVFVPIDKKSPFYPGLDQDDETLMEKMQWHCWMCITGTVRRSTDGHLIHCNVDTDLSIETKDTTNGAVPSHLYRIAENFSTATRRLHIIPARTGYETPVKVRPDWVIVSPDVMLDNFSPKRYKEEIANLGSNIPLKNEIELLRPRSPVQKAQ

[2] = target: T2, Kar4p E260K fused to the Gal4p DNA-binding domain (S. cerevisiae) (UniProt P25583)
T2 sequence: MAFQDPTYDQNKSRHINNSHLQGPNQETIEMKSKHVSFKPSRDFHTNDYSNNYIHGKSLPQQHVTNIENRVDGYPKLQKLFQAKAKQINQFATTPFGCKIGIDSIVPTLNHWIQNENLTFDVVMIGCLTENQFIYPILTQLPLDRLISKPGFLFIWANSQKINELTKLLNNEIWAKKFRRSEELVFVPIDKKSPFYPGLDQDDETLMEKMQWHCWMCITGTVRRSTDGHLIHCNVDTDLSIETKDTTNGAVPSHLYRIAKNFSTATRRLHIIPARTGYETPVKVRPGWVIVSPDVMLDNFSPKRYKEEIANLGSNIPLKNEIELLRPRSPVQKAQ

[3] = target: T3, Kar4p fused to the Gal4p DNA-binding domain (S. cerevisiae) (UniProt P25583)
T3 sequence: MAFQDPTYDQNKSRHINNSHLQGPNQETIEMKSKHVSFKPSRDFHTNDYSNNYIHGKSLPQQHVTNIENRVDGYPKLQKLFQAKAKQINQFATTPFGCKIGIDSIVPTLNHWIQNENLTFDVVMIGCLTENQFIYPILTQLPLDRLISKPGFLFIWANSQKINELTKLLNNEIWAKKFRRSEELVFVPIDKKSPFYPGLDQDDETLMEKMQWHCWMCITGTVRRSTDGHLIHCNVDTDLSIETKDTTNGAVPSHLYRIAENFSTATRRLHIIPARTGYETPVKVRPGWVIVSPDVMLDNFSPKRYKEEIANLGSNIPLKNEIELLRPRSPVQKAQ

[4] = target: T4, Kar4p F186S fused to the Gal4p DNA-binding domain (S. cerevisiae) (UniProt P25583)
T4 sequence: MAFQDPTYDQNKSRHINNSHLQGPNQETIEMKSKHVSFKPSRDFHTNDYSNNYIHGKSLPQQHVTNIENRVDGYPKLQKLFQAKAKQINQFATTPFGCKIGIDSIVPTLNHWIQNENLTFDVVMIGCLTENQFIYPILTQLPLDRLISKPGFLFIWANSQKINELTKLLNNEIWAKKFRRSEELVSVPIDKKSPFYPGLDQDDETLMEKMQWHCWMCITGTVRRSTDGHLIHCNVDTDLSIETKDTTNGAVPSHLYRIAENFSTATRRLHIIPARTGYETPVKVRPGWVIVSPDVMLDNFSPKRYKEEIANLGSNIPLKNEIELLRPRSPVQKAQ

[5] = target: T5, Kar4p H213Y fused to the Gal4p DNA-binding domain (S. cerevisiae) (UniProt P25583)
T5 sequence: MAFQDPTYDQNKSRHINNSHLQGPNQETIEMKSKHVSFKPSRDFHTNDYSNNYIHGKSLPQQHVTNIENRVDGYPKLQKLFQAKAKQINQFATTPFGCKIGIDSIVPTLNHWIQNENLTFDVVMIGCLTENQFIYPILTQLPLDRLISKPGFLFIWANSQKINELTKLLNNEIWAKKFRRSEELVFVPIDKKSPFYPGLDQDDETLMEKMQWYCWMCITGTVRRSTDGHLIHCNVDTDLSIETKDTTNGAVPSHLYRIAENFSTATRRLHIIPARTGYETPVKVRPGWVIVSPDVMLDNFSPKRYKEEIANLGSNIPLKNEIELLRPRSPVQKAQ

[6] = target: T6, Kar4p T264P fused to the Gal4p DNA-binding domain (S. cerevisiae) (UniProt P25583)
T6 sequence: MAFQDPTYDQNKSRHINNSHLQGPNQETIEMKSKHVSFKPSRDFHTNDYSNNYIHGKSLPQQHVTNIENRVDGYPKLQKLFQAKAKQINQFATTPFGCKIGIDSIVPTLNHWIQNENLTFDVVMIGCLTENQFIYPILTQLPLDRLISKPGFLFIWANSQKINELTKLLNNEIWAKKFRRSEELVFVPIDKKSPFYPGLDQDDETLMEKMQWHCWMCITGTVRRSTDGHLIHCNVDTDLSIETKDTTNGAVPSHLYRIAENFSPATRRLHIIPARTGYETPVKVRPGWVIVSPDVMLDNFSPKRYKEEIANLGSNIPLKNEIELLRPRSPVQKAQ

B1: Ime4p fused to the Gal4p activating domain (protein, UniProt P41833 1-600)
chain: MINDKLVHFLIQNYDDILRAPLSGQLKDVYSLYISGGYDDEMQKLRNDKDEVLQFEQFWNDLQDIIFATPQSIQFDQNLLVADRPEKIVYLDVFSLKILYNKFHAFYYTLKSSSSSCEEKVSSLTTKPEADSEKDQLLGRLLGVLNWDVNVSNQGLPREQLSNRLQNLLREKPSSFQLAKERAKYTTEVIEYIPICSDYSHASLLSTSVYIVNNKIVSLQWSKISACQENHPGLIECIQSKIHFIPNIKPQTDISLGDCSYLDTCHKLNTCRYIHYLQYIPSCLQERADRETASENKRIRSNVSIPFYTLGNCSAHCIKKALPAQWIRCDVRKFDFRVLGKFSVVIADPAWNIHMNLPYGTCNDIELLGLPLHELQDEGIIFLWVTGRAIELGKESLNNWGYNVINEVSWIKTNQLGRTIVTGRTGHWLNHSKEHLLVGLKGNPKWINKHIDVDLIVSMTRETSRKPDELYGIAERLAGTHARKLEIFGRDHNTRPGWFTIGNQLTGNCIYEMDVERKYQEFMKSKTGTSHTGTKKIDKKQPSKLQQQHQQQYWNNMDMGSGKYYAEAKQNPMNQKHTPFESKQQQKQQFQTLNNLYFAQ
**Q.** Which binding [1] does the source give for B1 here?
**A.** no binding

**Q.** And the binding [2]?
**A.** binds

**Q.** What about the binding [3] of the same binder?
**A.** binds

**Q.** And the binding [4]?
**A.** binds

**Q.** And the binding [5]?
**A.** binds

**Q.** And the binding [6]?
**A.** binds
